Results reported in PubChem BioAssay AID1645882 (National Center for Advancing Translational Sciences (NCATS), 2021).
About 120 (0.75%) of roughly 16,000 compounds were called active. Roughly 4% stayed inconclusive and do not appear here. Calls come from the whole dose curve; as a rule, active = well fitted inhibition curve with a large enough effect; inconclusive = small, poorly fitted or top-dose-only effect; inactive = no such curve, though single readings can be large or run the other way. Some of the results follow.

Target: Rap guanine nucleotide exchange factor 3 (Homo sapiens) (UniProt O95398)
Assay: Validation qHTS for antagonist of cAMP-regulated guanine nucleotide exchange factor 3 (EPAC1);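 note: plate controls were DMSO for no effect and ATA control for full effect; nearly all actives have a fitted effect of over 75% in size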
Conditions: EPAC1 Rap1B-BODIPY-GDP exchange, fluorescence; series mostly up to 150 µM; activity change, negative = inhibition: at the top concentration
Procedure, shortened: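 Nucleotide exchange followed as fluorescence loss when BODIPY-GDP leaves Rap1B (480 nm excitation, 540 nm emission), read at 5 min intervals over 30 min. Reaction: 100 nM EPAC1, 250 nM RAP1B-BODIPY-GDP, 50 uM GDP; ATA and DMSO define normalization.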

Chain of UniProt O95398 (O95398 whole entry, looked up): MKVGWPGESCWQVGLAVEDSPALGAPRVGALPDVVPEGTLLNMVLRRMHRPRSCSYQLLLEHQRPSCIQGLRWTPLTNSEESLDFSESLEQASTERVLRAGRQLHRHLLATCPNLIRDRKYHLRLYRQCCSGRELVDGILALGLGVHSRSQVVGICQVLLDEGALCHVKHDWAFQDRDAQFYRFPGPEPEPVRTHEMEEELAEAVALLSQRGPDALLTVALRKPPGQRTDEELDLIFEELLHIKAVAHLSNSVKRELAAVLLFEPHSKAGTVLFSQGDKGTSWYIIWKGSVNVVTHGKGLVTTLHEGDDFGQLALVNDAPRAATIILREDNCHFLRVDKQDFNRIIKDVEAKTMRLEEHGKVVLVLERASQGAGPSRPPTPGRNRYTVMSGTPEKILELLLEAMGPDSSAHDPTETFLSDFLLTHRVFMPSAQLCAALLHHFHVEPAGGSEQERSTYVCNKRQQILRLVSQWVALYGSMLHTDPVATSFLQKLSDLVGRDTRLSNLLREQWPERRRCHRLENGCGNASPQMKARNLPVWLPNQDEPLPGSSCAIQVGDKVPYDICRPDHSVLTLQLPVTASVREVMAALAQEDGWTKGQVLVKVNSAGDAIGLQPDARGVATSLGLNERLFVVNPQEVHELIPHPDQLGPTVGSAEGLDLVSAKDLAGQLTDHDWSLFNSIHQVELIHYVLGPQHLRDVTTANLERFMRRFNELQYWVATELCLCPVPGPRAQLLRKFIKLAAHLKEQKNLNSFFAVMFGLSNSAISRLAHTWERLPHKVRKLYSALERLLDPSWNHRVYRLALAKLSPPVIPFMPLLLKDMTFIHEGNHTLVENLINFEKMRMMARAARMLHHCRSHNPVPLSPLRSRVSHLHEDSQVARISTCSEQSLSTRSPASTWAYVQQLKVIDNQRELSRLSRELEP

Activity change, negative = inhibition, inactive:
COc1ccccc1CNc1ccnc(-c2ccc3c(c2)OCO3)n1 1.29%
COc1ccc(Oc2ncc3ncc(=O)n(CCC#N)c3n2)cc1 14.6%
Cc1ccc(C(=O)Nc2cccc(-c3nc(CNC(=O)c4ccc(F)cc4Cl)c(C)o3)c2)s1 -17.1%
COc1cc(=O)n2c(c1C(=O)N(C)Cc1nonc1C)CCN(CC1CC=CCC1)CC2 (configuration not stated) -9.33%
Cc1cc(=O)c2c(O)c3c(O)cc(=O)c4c3c3c(cc(O)c1c23)C(C)(C)C=4O
COCCn1c(=O)c(-c2cc(F)cc(F)c2)nc2cncnc21 16%
O=c1oc2cc(O)ccc2cc1-c1ccc2c(c1)OCCO2 -8.11%
CCN[C@H]1CN(CCCOC)S(=O)(=O)c2sc(S(N)(=O)=O)cc21 10.3% [at 75.8 µM]
NS(=O)(=O)c1cc(C2(O)NC(=O)c3ccccc32)ccc1Cl (configuration not stated)
CC(C)N(CCO)Cc1nc(N2CCOCC2)c2cc(Cl)ccc2n1 10.7%
COc1ccc(-c2nc3cnc(Nc4cccc(OC)c4)nc3n(C)c2=O)cc1 5.15%
COS(C)(=O)=O 19.1%
Cc1cc(C)nc(S[C@H]2C[C@@H](C(=O)N3CCN(c4ccccc4F)CC3)N(Cc3ccccc3F)C2)n1 -6.36%
Oc1cc2c(cc1O)[C@H]1c3ccc(O)c(O)c3OC[C@@]1(O)C2 15.5%
C=CC(N)CCC(=O)O (configuration not stated)
CCCCCCCCCCCCCCCC(=O)OC/C=C(C)/C=C/C=C(C)/C=C/C1=C(C)CCCC1(C)C
O=C(O)CCCCCCCC(=O)O
O=C(CCCN1CCN2CCCC2C1)c1ccc(F)cc1 (configuration not stated) 5.88%
CCCCCCCCCCCCCCCCCCNC(=O)OC1CCN(C(=O)OC[C@H](COC(=O)N(Cc2cccc[n+]2CC)C(=O)c2ccccc2OC)OC)CC1 17%
CC12CCC3C(CC3(C)C)C(C)(CCC1=O)O2 (configuration not stated) 5.94%
CC1CN(Cc2cccn2-c2cccnc2)Cc2cc(Cl)ccc2O1 (configuration not stated) -6.43%
Cc1noc(C)c1C(=O)N1CCC2(CC1)CCN(c1ncccn1)CC2 21.4%
COCC(=O)N1CCC2(CCCN(C(c3ccccc3)c3ccccc3)C2)CC1 4.64%
Cn1c(=O)c(-c2cccc(F)c2)nc2cncnc21 -7.64%
CCCCCCCCCC(=O)O[C@H](CC(=O)O)C[N+](C)(C)C 13.5%
C=C1C[C@@]23C[C@@]1(O)CC[C@@H]2[C@]12C=C[C@@H](O)[C@](C)(C(=O)O1)[C@@H]2[C@@H]3C(=O)O -10.2%
CN(C)c1ncc2nc(-c3ccccc3)c(=O)n(C)c2n1 16.1%
O=C(O)[C@H]1[C@H]2C[C@H]3c4[nH]c5ccccc5c4CCN3C[C@@H]2CC[C@@H]1O 13%
CC(O)CN(CCN(CC(C)O)CC(C)O)CC(C)O (configuration not stated) 9.94%
COCC(=O)N1CCC2(CC1)CN(Cc1ccccc1OC)C2 0.463%
CN(C)Cc1ccccc1-c1cncnc1NC1CC1 24.4%
CC[N+](C)(CC)CCOC(=O)C1c2ccccc2Oc2ccccc21 5.2%
O=C(O)CN1C(=O)c2cccc3cccc(c23)C1=O
FC(F)(F)C(Cl)Br (configuration not stated) 23.1%
CCCCN(CCCC)CCCOC(=O)c1ccc(N)cc1 1.71%
Cc1ccc(C(=O)c2ccc(CC(=O)O)n2C)cc1
C/C(=N\O)c1ccc(OCC(=O)N2CCCCC2)cc1 19.5%
c1ccc(Nc2nc(-c3cccnc3)nc3ccccc23)cc1 0.665%
Cc1cnc(SCC2CCCO2)nc1C1CCCN(Cc2nc(-c3ccccc3)cs2)C1 (configuration not stated) 6.04%
O=C(c1cnccn1)N1CCC[C@@]2(CCN(c3ccccc3)C2)C1 7.37%
Cc1cn[nH]c1
COc1ccc(CN2CCCC(Cn3cc(C(=O)N4CCCC4)nn3)C2)c(O)c1 (configuration not stated) 5.03%
NC(N)=NS(=O)(=O)c1ccc(N)cc1
COc1cccc(Nc2ncc3ncc(=O)n(C4CC4)c3n2)c1 5.85%
COc1ccccc1-c1cncnc1NCc1cccc(C)c1 19.6%
O=C(c1cccc(F)c1)N1CCC2(CCN(Cc3nccs3)CC2)CC1 10.1%
COC(=O)C1CCCCN1Cc1ccc2c(c1)CN(C(=O)c1ccc(C)s1)CCO2 (configuration not stated) 1.06%
OCCN1CCN(CC/C=C2/c3ccccc3Sc3ccc(C(F)(F)F)cc32)CC1
O=C(c1ccco1)N1CCC2(CCN(Cc3ccncc3)CC2)CC1 12.7%
COc1ccc(N2C(=O)[C@@H]3C[C@H]2CN3Cc2ccc3nccnc3c2)cc1Cl 4.81%
CCNc1ncc2ncc(=O)n(Cc3cccc(OC)c3)c2n1 3.83%
COc1c(-c2coc3cc4c(cc3c2=O)CC(O)C(C)(C)O4)ccc2c1C=CC(C)(C)O2 (configuration not stated) -15.3%
C[C@@H](O)[C@H]1C(=O)N2C(C(=O)O)=C([C@H]3CCCO3)S[C@H]12 0.809%
CN(C)Cc1ccccc1-c1cncnc1NCc1cccnc1 -10.8%
CC(=O)N1CCC2(CCCN(c3ccncc3)C2)CC1 6.16%
N[C@@H](C(=O)O)[C@@H](CC(=O)O)c1ccc(Cl)cc1 17.6%
COc1ccc2c(c1)O[C@@H]1c3ccc(OC)cc3OCC21 (some centres not stated) 5.15%
C[C@@H](NCCCc1cccc(C(F)(F)F)c1)c1cccc2ccccc12 -13.5%
CC(=O)[C@@]1(O)CC[C@H]2[C@@H]3C=C(Cl)C4=CC(=O)[C@@H]5C[C@@H]5[C@]4(C)[C@H]3CC[C@@]21C 9.17%
CO[C@@H]1[C@@H](O[C@@H]2O[C@H](C)[C@@H](O[C@H]3C[C@@](C)(O)[C@@H](OC(=O)CC(C)C)[C@H](C)O3)[C@H](N(C)C)[C@H]2O)[C@@H](CC=O)C[C@@H](C)[C@@H](O)/C=C/C=C/C[C@@H](C)OC(=O)C[C@H]1O
CN(Cc1ccco1)c1ccnc(-c2ccccc2C(F)(F)F)n1 -6.64%
COc1cc(=O)n2c(c1C(=O)NCc1ccco1)CCN(Cc1cccc(Cl)c1)CC2 6.94%
CC(C)c1c(C(=O)NCc2cccnc2)cnn1-c1nccc(-c2ccccc2F)n1 8.75%
COc1ccc(OC)c(/C=C/c2ccnc3ccccc23)c1 -4.67%
CC[N+](C)(C)c1cccc(O)c1
COc1ccccc1CCn1c(=O)c(-c2cccc(Cl)c2)nc2cncnc21 -9.79%
COc1cc(OC)c2nc(-c3cc4c(c(OC)c3)OCCN(C(=O)C(C)c3n[nH]c(=O)c5ccccc35)C4)cc(C)c2c1 (configuration not stated) 23.1%
